# Data: the supplement of paper PMC9135407
# Values joined by “and” are separate entries in the source; they are usually repeats but may differ in a detail not shown here. Equal values may be shown once. Where a name gives a salt, the structure may show the parent alone. About 620 (11%) of roughly 5,800 compounds showed activity.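 The calls were made as follows: active = score above a cut-off or among the top three wells of a plate; in these data no inactive exceeds 0.85.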 The list shows a part of the results, in another mix than the full data.
# Test system: primary human hepatic stellate cells (donor 1)
# Assay: scaled lipid accumulation score (0 = DMSO-like, 1 = nortriptyline-like); higher = stronger HSC inactivation (lipid re-accumulation), active = hit call of the paper
# Conditions: 48 h
# [1] = library stock concentration: 10 mM
# [2] = library stock concentration: 3.33 mM
# [3] = library stock concentration: 1 mM
# [4] = library stock concentration: 80 uM
# [5] = library stock concentration: 400 uM
# [6] = library stock concentration: 2 mM
smiles,measurement,setting,value
C1[C@@H](N(C)[C@@H]2C1)C[C@@H](OC(c3ccccc3)c4ccccc4)C2.CS(O)(=O)=O (stereo partly drawn) [Benztropine mesylate],scaled lipid accumulation score,[1],active: 0.873
O=C(O)c1cc(/N=N/c2ccc(S(=O)(=O)Nc3ccccn3)cc2)ccc1O [Sulfasalazine],scaled lipid accumulation score,,inactive: ≤ 0
same,scaled lipid accumulation score,[2],inactive: ≤ 0
same,scaled lipid accumulation score,library stock concentration: 5 mM,inactive: ≤ 0
same,scaled lipid accumulation score,[1],inactive: ≤ 0
O=C(O)c1cc(/N=N/c2ccc(S(=O)(=O)Nc3ccccn3)cc2)ccc1O,scaled lipid accumulation score,[1],inactive: 0.052
CCCCCCCC/C=C/CCCCCCCC(=O)O [Elaidic Acid],scaled lipid accumulation score,[3],inactive: ≤ 0
COc1cc(/C=C/c2ccc(Cl)cc2)cc(OC)c1,scaled lipid accumulation score,[3],inactive: ≤ 0
Nc1ncnc2c1ncn2C1OC(COP(=O)(O)O)C(O)C1O (stereo not drawn) [Adenosine 5'-monophosphate monohydrate],scaled lipid accumulation score,,inactive: 0.109
COc1cc2ncnc(-n3nc(-c4ccccn4)nc3N)c2cc1OC,scaled lipid accumulation score,[4],inactive: ≤ 0
same,scaled lipid accumulation score,[5],inactive: 0.052
same,scaled lipid accumulation score,[6],inactive: 0.101
same,scaled lipid accumulation score,[1],inactive: 0.046
CCN(CC)CCOc1ccc2c(c1)C(=O)c1cc(OCCN(CC)CC)ccc1-2 [Tilorone],scaled lipid accumulation score,[1],active: 0.879
CCOC(=O)c1cnc2c(cnn2CC)c1NN=C(C)C [Etazolate hydrochloride],scaled lipid accumulation score,[1],inactive: ≤ -0.07 and inactive: ≤ 0
CCOC(=O)c1cnc2c(cnn2CC)c1NN=C(C)C [Etazolate],scaled lipid accumulation score,library stock concentration: 6.9 mM,inactive: ≤ 0
CCOC(=O)[C@H](CCc1ccccc1)N[C@@H](C)C(=O)N1C(=O)N(C)C[C@H]1C(=O)O [Imidapril HCl],scaled lipid accumulation score,[2],inactive: ≤ 0
same,scaled lipid accumulation score,[1],inactive: ≤ 0
C[C@@H]1C[C@H]2[C@@H]3CCC4=CC(=O)C=C[C@]4(C)[C@@]3(Cl)[C@@H](O)C[C@]2(C)[C@@]1(OC(=O)c1ccco1)C(=O)CCl [Mometasone furoate],scaled lipid accumulation score,,inactive: 0.136
same,scaled lipid accumulation score,[2],inactive: 0.086
same,scaled lipid accumulation score,[1],inactive: 0.519
CCC1(O)CC2CN(CCc3c([nH]c4ccccc34)[C@@](C(=O)OC)(c3cc4c(cc3OC)N(C)C3[C@]45CCN4CC=C[C@@](CC)([C@@H](OC(C)=O)[C@]3(O)C(=O)OC)[C@H]45)C2)C1.O=S(=O)(O)O (stereo partly drawn) [Vinblastine sulfate salt],scaled lipid accumulation score,[1],active: 0.877
CCOc1ccc2nc(S(N)(=O)=O)sc2c1 [Ethoxzolamide],scaled lipid accumulation score,library stock concentration: 7.7 mM,inactive: ≤ 0
c1coc(CNc2ncnc3[nH]cnc23)c1 [Kinetin],scaled lipid accumulation score,[2],inactive: ≤ 0
same,scaled lipid accumulation score,[1],inactive: ≤ 0
C[C@]12CCC3=C4CCC(=O)C=C4CC[C@H]3[C@@H]1CC[C@@]2(O)CC#N [Dienogest],scaled lipid accumulation score,[2],inactive: ≤ 0
same,scaled lipid accumulation score,[1],inactive: ≤ 0
CN1CCN(CCCN2c3ccccc3Sc3ccc(C(F)(F)F)cc32)CC1.Cl.Cl [Trifluoperazine],scaled lipid accumulation score,library stock concentration: 10.4 mM,active: 0.892
CCCCc1ccc2[nH]c(NC(=O)OC)nc2c1 [Parbendazole],scaled lipid accumulation score,,inactive: ≤ 0
COc1cc2ncnc(Nc3cccc(Cl)c3)c2cc1OC,scaled lipid accumulation score,[4],inactive: ≤ -0.016
same,scaled lipid accumulation score,[5],inactive: ≤ -0.016
same,scaled lipid accumulation score,[6],inactive: ≤ -0.016
same,scaled lipid accumulation score,[2],inactive: ≤ 0
same,scaled lipid accumulation score,[1],inactive: 0.749
same,scaled lipid accumulation score,library stock concentration: 14.2 mM,inactive: 0.452
COc1cc2ncnc(Nc3cccc(Cl)c3)c2cc1OC [AG-1478 (Tyrphostin AG-1478)],scaled lipid accumulation score,[2],inactive: ≤ 0
NC(=O)Nc1cc(-c2cccc(F)c2)sc1C(=O)N[C@H]1CCCNC1,scaled lipid accumulation score,[2],active: 0.879
O=c1oc2cc(O)ccc2s1 [Tioxolone],scaled lipid accumulation score,[2],inactive: ≤ 0
same,scaled lipid accumulation score,[1],inactive: ≤ 0 and inactive: ≤ -0.027
Nc1ccccc1NC(=O)c1ccc(CNc2nccc(-c3cccnc3)n2)cc1 [Mocetinostat (MGCD0103)],scaled lipid accumulation score,[2],active: 0.974
CC1/C=C/C=C/C=C/C=C/C=C/C=C/C=C/C(OC2O[C@H](C)[C@@H](O)[C@H](N)[C@@H]2O)CC(O)C(C(=O)O)C(O)CC(=O)CC(O)CC(O)CC(O)CC(=O)CCCC(=O)CC(=O)OC1C(C)CC(C)C(O)CC(=O)c1ccc(N)cc1 (stereo partly drawn),scaled lipid accumulation score,[1],inactive: ≤ 0
O=C1C(Cl)=C(NCCN2CCOCC2)C(=O)c2ncccc21,scaled lipid accumulation score,[1],active: 1.04
CC(C)=CCC/C(C)=C/CC/C(C)=C/CC[C@]1(C)CCc2cc(O)c(C)c(C)c2O1 [.gamma.-Tocotrienol],scaled lipid accumulation score,[3],inactive: ≤ 0
CCCCC/C=C\C/C=C\C/C=C\C/C=C\CCCC(=O)O[C@@H](CO)COCCCCCCCCCCCCCCCC [1-Hexadecyl-2-arachidonoyl-glycerol],scaled lipid accumulation score,[3],inactive: 0.044
CC=CC1=C(C(=O)O)N2C(=O)[C@@H](NC(=O)[C@H](N)c3ccc(O)cc3)[C@H]2SC1 [Cefprozil],scaled lipid accumulation score,library stock concentration: 5.1 mM,inactive: ≤ 0
same,scaled lipid accumulation score,[1],inactive: ≤ 0
Nc1nc(OCC2CCCCC2)c2[nH]cnc2n1,scaled lipid accumulation score,[1],inactive: ≤ -0.055
CCn1c(-c2nonc2N)nc2c(C#CC(C)(C)O)ncc(OC[C@H]3CCCNC3)c21,scaled lipid accumulation score,[4],inactive: ≤ -0.008
same,scaled lipid accumulation score,[5],inactive: ≤ -0.009 and inactive: ≤ -0.005
same,scaled lipid accumulation score,[6],inactive: ≤ -0.009 and inactive: ≤ -0.005
same,scaled lipid accumulation score,[2],inactive: 0.355
same,scaled lipid accumulation score,[1],inactive: 0.482 and inactive: 0.613 and inactive: ≤ -0.005
NC(=O)CC[C@H](N)C(=O)O,scaled lipid accumulation score,[1],inactive: 0.123
NC(=O)CC[C@H](N)C(=O)O [L-Glutamine],scaled lipid accumulation score,[1],inactive: ≤ -0.07
O=C1c2ccccc2C(=O)C1c1ccc(Br)cc1 [Bromindione],scaled lipid accumulation score,library stock concentration: 6.6 mM,inactive: ≤ 0
CCN(CC)CCOc1ccc(Nc2ncc3cc(-c4c(Cl)cccc4Cl)c(=O)n(C)c3n2)cc1,scaled lipid accumulation score,[1],inactive: 0.416
CCCCC/C=C\C/C=C\C/C=C\CCCCCCC(=O)O [Dihomo-gamma-linolenic acid],scaled lipid accumulation score,[3],inactive: ≤ -0.021
CCCCC/C=C\C/C=C\C/C=C\CCCCCCC(=O)O [Dihomo-.gamma.-Linolenic Acid],scaled lipid accumulation score,[3],inactive: 0.003
CN(C)CCCN1c2ccccc2CCc2ccc(Cl)cc21.Cl [Clomipramine hydrochloride],scaled lipid accumulation score,[1],active: 1.31
CN1C(=O)C(Cc2c[nH]c3ccccc23)NC1=S (stereo not drawn) [Necrostatin-1],scaled lipid accumulation score,[4],inactive: 0.008
same,scaled lipid accumulation score,[5],inactive: ≤ 0
same,scaled lipid accumulation score,[6],inactive: ≤ 0
same,scaled lipid accumulation score,[2],inactive: ≤ -0.009 and inactive: ≤ 0
same,scaled lipid accumulation score,[1],inactive: ≤ 0 and inactive: 0.03
CCCCCCCC/C=C\CCCCCCCC(=O)OCC [Oleic Acid ethyl ester],scaled lipid accumulation score,[3],inactive: 0.015
CNCc1ccc(-c2[nH]c3cc(F)cc4c3c2CCNC4=O)cc1.O=P(O)(O)O,scaled lipid accumulation score,[1],active: 1.47
Cc1ccc(NC(=O)C2(c3ccc4c(c3)OC(F)(F)O4)CC2)nc1-c1cccc(C(=O)O)c1 [VX-809 (Lumacaftor)],scaled lipid accumulation score,[2],inactive: ≤ 0
same,scaled lipid accumulation score,[1],inactive: ≤ 0
C[C@H]1[C@H](C)CC[C@]2(C(=O)O[C@@H]3O[C@H](CO[C@@H]4O[C@H](CO)[C@@H](O[C@@H]5O[C@H](C)[C@H](O)[C@@H](O)[C@H]5O)[C@H](O)[C@H]4O)[C@@H](O)[C@H](O)[C@H]3O)CC[C@]3(C)C(=CC[C@@H]4[C@@]5(C)C[C@@H](O)[C@H](O)[C@@](C)(CO)[C@@H]5CC[C@]43C)[C@H]12 [Asiaticoside],scaled lipid accumulation score,,inactive: ≤ 0
"Cc1c(O)c(=O)n(-c2ccccc2)n1C [Antipyrine, 4-hydroxy]",scaled lipid accumulation score,,inactive: ≤ 0
CC(C)OC(=O)C(C)(C)Oc1ccc(C(=O)c2ccc(Cl)cc2)cc1,scaled lipid accumulation score,[1],inactive: 0.308
CC(C)OC(=O)C(C)(C)Oc1ccc(C(=O)c2ccc(Cl)cc2)cc1 [Fenofibrate],scaled lipid accumulation score,,inactive: ≤ 0
same,scaled lipid accumulation score,[3],inactive: 0.007
same,scaled lipid accumulation score,[2],inactive: ≤ 0
same,scaled lipid accumulation score,[1],inactive: ≤ 0 and inactive: ≤ -0.07
O=[N+]([O-])c1ccc(CSc2ncnc3c2ncn3[C@@H]2O[C@H](CO)[C@@H](O)[C@H]2O)cc1 [S-(4-Nitrobenzyl)-6-thioinosine],scaled lipid accumulation score,[1],inactive: 0.055
CC(=O)c1c(C)c2cnc(Nc3ccc(N4CCNCC4)cn3)nc2n(C2CCCC2)c1=O,scaled lipid accumulation score,[4],inactive: ≤ 0
same,scaled lipid accumulation score,[5],inactive: ≤ 0
same,scaled lipid accumulation score,[6],inactive: ≤ 0
same,scaled lipid accumulation score,[2],inactive: ≤ 0
same,scaled lipid accumulation score,[1],inactive: 0.483 and inactive: ≤ 0
"CCCCCCCCCCCCC/C=C/[C@@H](O)[C@H](CO)N(C)C [N,N-Dimethylsphingosine]",scaled lipid accumulation score,[3],active: 0.965
Clc1ccc2c(N3CCN(CCCN4CCN(c5ccnc6cc(Cl)ccc56)CC4)CC3)ccnc2c1 [Piperaquine tetraphosphate tetrahydrate],scaled lipid accumulation score,[1],inactive: 0.316
Cn1cc(CNCC2CCN(c3ncc(C(=O)NO)cn3)CC2)c2ccccc21,scaled lipid accumulation score,[1],active: 0.985
CC(C)(C)c1ccc(S(=O)(=O)/C=C/C#N)cc1,scaled lipid accumulation score,[1],inactive: 0.172
CN1CCCN=C1/C=C/c1cccc(O)c1 [Oxantel pamoate],scaled lipid accumulation score,,inactive: ≤ 0
Cl.O=C(NCCCN1CCCCCC1)C(c1ccccc1)C1CCCCC1 (stereo not drawn),scaled lipid accumulation score,[1],active: 0.897
CC(N)CCCC(C)(C)O (stereo not drawn) [Heptaminol hydrochloride],scaled lipid accumulation score,,inactive: ≤ 0
same,scaled lipid accumulation score,[1],inactive: ≤ -0.027
C[C@@H](O[C@H]1OCCN(Cc2n[nH]c(=O)[nH]2)[C@H]1c1ccc(F)cc1)c1cc(C(F)(F)F)cc(C(F)(F)F)c1 [Aprepitant],scaled lipid accumulation score,[2],inactive: ≤ 0
same,scaled lipid accumulation score,[1],inactive: ≤ 0
Oc1cccc(O)c1 [Resorcinol],scaled lipid accumulation score,[1],inactive: ≤ 0
same,scaled lipid accumulation score,library stock concentration: 18.2 mM,inactive: ≤ 0
Cc1cc(O)cc(C)c1Cl [Chloroxylenol],scaled lipid accumulation score,[1],inactive: ≤ 0
NC(=O)c1ccc(-c2nc(-c3ccccn3)c(-c3ccc4c(c3)OCO4)[nH]2)cc1,scaled lipid accumulation score,[3],inactive: ≤ 0
same,scaled lipid accumulation score,[2],inactive: ≤ 0
same,scaled lipid accumulation score,[1],inactive: ≤ 0 and inactive: 0.083
same,scaled lipid accumulation score,library stock concentration: 13 mM,inactive: 0.006
